{
  "source": "ChEMBL document CHEMBL4888484",
  "about": "“Replenishing the malaria drug discovery pipeline: Screening and hit evaluation of the MMV Hit Generation Library 1 (HGL1) against asexual blood stage Plasmodium falciparum ,using a nano luciferase reporter read-out” (2022)",
  "note": "In all, about 150,000 compounds went through this assay and about 540 (0.36%) showed an effect of 50% or more. The list shows a part of the results.",
  "data": [
    {"system": "Plasmodium falciparum", "experiment": "Primary screen in NF54 nanoGlo assay, in single point, at 2uM, 72h; a lower Z score goes with more inhibition", "type": "functional, Erythrocyte", "conditions": "timepoint 72 hour", "units": {"% Inhibition": "%"}, "values": [
      {"smiles": "Cc1cc(NC(=O)c2ccccc2C(=O)c2ccc(Cl)cc2)ccc1N1CCCC1=O", "% Inhibition": -10, "Z score": 1.56},
      {"smiles": "CC(=O)/C(=N\\Nc1ccc(Cl)cc1)N(/C(=N/Nc1ccc(Cl)cc1)C(C)=O)C(C)(C)C", "% Inhibition": -14, "Z score": 1.51},
      {"smiles": "Cc1nc2c(C(=O)NCCC3=CCCCCC3)ccnc2[nH]1", "% Inhibition": 7, "Z score": -1.37},
      {"smiles": "Cc1nc(N(CCO)Cc2nccn2C)c2nc(C)oc2n1", "% Inhibition": -16, "Z score": 2.14},
      {"smiles": "CC(=O)/C(=N/Nc1ccc(Cl)cc1)N1CCCc2ccccc21", "% Inhibition": -4, "Z score": 0.55},
      {"smiles": "CN1CCN(C(=O)CCc2cc3n(n2)CCN(Cc2ccncc2)C3)CC1", "% Inhibition": -3, "Z score": 0.52},
      {"smiles": "Cc1cccc(C2CC2C(=O)N2CCCC(n3cccn3)C2)c1", "note": "(stereo not given)", "% Inhibition": -2, "Z score": 0.24},
      {"smiles": "COc1ccc(CCNC(=O)Cc2csc(COc3ccc(C)c(C)c3)n2)cc1", "% Inhibition": -17, "Z score": 3.29},
      {"smiles": "Cc1ncc(NC(=O)NCC2CCCCCC2)cn1", "% Inhibition": -6, "Z score": 0.89},
      {"smiles": "CC(C)c1cc(C(=O)N2CC[C@H]2c2cccc(Br)c2)nn1C", "% Inhibition": -9, "Z score": 1.48},
      {"smiles": "Cc1c(C(=O)N2C[C@@H]3CCC[C@H](C2)C(=O)N3)ccn1C", "% Inhibition": -14, "Z score": 2.63},
      {"smiles": "C[C@H]1CN(Cc2cc(-c3ccccc3)on2)Cc2c[nH]nc21", "% Inhibition": -5, "Z score": 0.55},
      {"smiles": "CCOC(=O)[C@@H]1CCCCN1C(=O)c1cc(CCc2ccccc2)no1", "% Inhibition": -8, "Z score": 1.04},
      {"smiles": "CN(Cc1cccnc1)C(=O)c1csc(NC(=O)c2ccc(Cl)cc2Cl)n1", "% Inhibition": -12, "Z score": 1.69},
      {"smiles": "COc1ccccc1C(=O)N1Cc2c(C(=O)NC3CC3)nn(C)c2C1", "% Inhibition": -1, "Z score": 0.16},
      {"smiles": "O=C(Oc1ccc2c(Cc3ccccc3)noc2c1)c1ccccc1F", "% Inhibition": -6, "Z score": 0.63},
      {"smiles": "C[C@@H](C(=O)Nc1ccc2c(c1)CCCCC2)n1cnc2c(N)ncnc21", "% Inhibition": 9, "Z score": -1.17},
      {"smiles": "O=C(O)CC[C@@H]1CN(Cc2ccc3ccccc3c2)CC[C@@H]1N1CCN(c2ccccc2F)CC1", "% Inhibition": 11, "Z score": -1.53},
      {"smiles": "CCN(C(=O)[C@H]1CCOC1)c1ccc(C(F)(F)F)cc1", "% Inhibition": 36, "Z score": -5.22},
      {"smiles": "CCCOc1cc(OC)ccc1C(=O)Nc1cc(C(=O)NCC2CC2)ccc1C", "% Inhibition": 0, "Z score": 0.02},
      {"smiles": "NC(=O)[C@@H]1CN(c2cc(C(=O)NC3CC3)c3ccccc3n2)CCO1", "% Inhibition": -12, "Z score": 1.6},
      {"smiles": "CN(CC1(C)CCOCC1)C(=O)CCc1c[nH]c2ccccc12", "% Inhibition": 5, "Z score": -0.79},
      {"smiles": "CCC1(CC)CN(C(=O)CC2(O)CCCC2)CC[S@@+]1[O-]", "% Inhibition": -9, "Z score": 1.47},
      {"smiles": "CCc1ccnc(C(=O)NCCc2nc3c(s2)COCC3)c1", "% Inhibition": -1, "Z score": 0.19},
      {"smiles": "CC(C(=O)N1Cc2cncnc2[C@@H](C)C1)=C1CCCC1", "% Inhibition": -7, "Z score": 1.09},
      {"smiles": "O=C1C[C@H](c2ccc(C(F)(F)F)cc2)c2cnn(Cc3ccc4c(c3)OCO4)c2N1", "% Inhibition": -12, "Z score": 1.51},
      {"smiles": "CCOc1ccc([C@H]2CC(=O)Nc3c(S(=O)(=O)c4cccc(C)c4)csc32)cc1", "% Inhibition": -14, "Z score": 1.43},
      {"smiles": "c1ccc2c(c1)N(CCn1cncn1)CCN2CC1CC1", "% Inhibition": -4, "Z score": 0.64},
      {"smiles": "CC(CCCO)NC(CNC(=O)OC(C)(C)C)Cc1ccccc1", "note": "(stereo not given)", "% Inhibition": 5, "Z score": -1.01},
      {"smiles": "N#CC1(CS(=O)(=O)N(CC2CC2)c2cccnc2)CC1", "% Inhibition": -11, "Z score": 1.06},
      {"smiles": "OCCCNc1ccc(Cl)cc1OC(F)F", "% Inhibition": -4, "Z score": 0.53},
      {"smiles": "OC[C@H]1CCCN1CCCc1ccccc1", "% Inhibition": -12, "Z score": 2.22},
      {"smiles": "CCOc1cccc(CCNC(=O)N2CCCC3CN(C)CCC32)c1", "note": "(stereo not given)", "% Inhibition": 0, "Z score": 0.03},
      {"smiles": "CC(C)(C)c1ccc(CCCCN)cc1", "% Inhibition": -13, "Z score": 1.77},
      {"smiles": "Cc1cccc(-c2noc(N3CCOCC3)c2CN(Cc2ccc(F)cc2)C(=O)C2CCCC2)c1", "% Inhibition": 11, "Z score": -1.39},
      {"smiles": "CCO[C@H]1CCN(c2nnnn2CC2(C)CCOC3(CCC3)C2)C1", "note": "(stereo not given in full)", "% Inhibition": 19, "Z score": -2.48},
      {"smiles": "COCCN1C[C@@H](Cc2cccc(C(F)(F)F)c2)CC1=O", "% Inhibition": -21, "Z score": 1.91},
      {"smiles": "CCOC(=O)C1CCCN(C(=O)CN2Cc3ccccc3OC(c3ccccc3OC)C2)C1", "note": "(stereo not given)", "% Inhibition": -7, "Z score": 0.96},
      {"smiles": "COc1nn(C)cc1CNC(=O)Nc1ncc(C2CCCCC2)s1", "% Inhibition": -7, "Z score": 1.15},
      {"smiles": "Cc1nc(C)c(Cn2ccnc2-c2ccncc2)s1", "% Inhibition": -4, "Z score": 0.53},
      {"smiles": "O=C1CCN(S(=O)(=O)c2ccccc2)CCC[C@H](C(=O)N2CCN(Cc3ccccc3F)CC2)CCN1", "% Inhibition": -13, "Z score": 1.69},
      {"smiles": "COc1ccc(COc2ccccc2C(=O)NCc2ccccc2)cc1F", "% Inhibition": -16, "Z score": 2.18},
      {"smiles": "O=C(CN1CCCc2ccc(F)cc21)N1CCNC1=O", "% Inhibition": -3, "Z score": 0.59},
      {"smiles": "Nc1nnc(CCNC(=O)N2CCN(c3ccc4nccn4n3)CC2)s1", "% Inhibition": -16, "Z score": 1.89},
      {"smiles": "Cc1cccnc1[C@H](C)NC(=O)Cn1ccc(=O)cc1", "% Inhibition": -16, "Z score": 2.1},
      {"smiles": "CN(CCO)C[C@@]12CN(C(=O)OC(C)(C)C)C[C@]1(C(F)(F)F)C2", "% Inhibition": -2, "Z score": 0.35},
      {"smiles": "NC(=NCc1cc(F)cc(F)c1)N1CCN(c2ccccc2F)CC1", "% Inhibition": 2, "Z score": -0.33},
      {"smiles": "FC(F)Oc1ccc(NCc2ccon2)nc1", "% Inhibition": -2, "Z score": 0.22},
      {"smiles": "Cc1cccc(Cl)c1S(=O)(=O)N1CC(c2cccnc2)C1", "% Inhibition": -8, "Z score": 1.25},
      {"smiles": "CCNc1ncc(C(=O)N2CC(OCc3ccccc3F)C2)cn1", "% Inhibition": 0, "Z score": 0},
      {"smiles": "Cn1c(Cn2ncccc2=O)nnc1-c1ccc(Cl)cc1", "% Inhibition": 6, "Z score": -0.71},
      {"smiles": "COc1cc2c(cc1CN1CCCn3nc([C@H](C)O)cc3C1)OCCCO2", "% Inhibition": -15, "Z score": 1.47},
      {"smiles": "CC1=NN(c2nc(-c3ccc(F)cc3)cs2)C(=O)[C@H]1C", "% Inhibition": -12, "Z score": 2.33},
      {"smiles": "NC(=O)NCC(=O)N1CCC[C@H](C(=O)Cc2ccccc2)C1", "% Inhibition": -6, "Z score": 0.68},
      {"smiles": "CCN1CCC(Nc2ccc3[nH]ncc3c2)C(C)C1", "note": "(stereo not given)", "% Inhibition": -10, "Z score": 1.18}
    ]}
  ]
}
